Results reported in PubChem BioAssay AID2675 (National Center for Advancing Translational Sciences (NCATS), 2010).
The whole screen tested about 280,000 compounds, of which about 100 (0.036%) were called active. This list was built around the results that the source calls inconclusive (neither active nor inactive); the mix of calls is not that of the screen. Calls come from the whole dose curve; as a rule, active = well fitted inhibition curve with a large enough effect in the signal ratio, with a control signal flat (not every such curve was filed as active); inconclusive = small, poorly fitted or top-dose-only effect, or effect the other way, or a change in a side signal; inactive = no such curve, though single readings can be large or run the other way; the % refers to the signal ratio. Potencies beside an inconclusive call are fits to weak or partial responses and may not hold up. “Side channel” marks fits to a control or component signal instead of the main read-out.

These molecules were tested against Muscleblind-like protein 1 (Homo sapiens) (UniProt Q9NR56) (assay: qHTS Assay for Inhibitors of MBNL1-poly(CUG) RNA binding). Conditions: TR-FRET MBNL1-His/biotin-(CUG)12 binding, 665/545 ratio; activity change, negative = inhibition: at 57.5 µM (top of the series).
Chain of UniProt Q9NR56 (Q9NR56 whole entry, looked up): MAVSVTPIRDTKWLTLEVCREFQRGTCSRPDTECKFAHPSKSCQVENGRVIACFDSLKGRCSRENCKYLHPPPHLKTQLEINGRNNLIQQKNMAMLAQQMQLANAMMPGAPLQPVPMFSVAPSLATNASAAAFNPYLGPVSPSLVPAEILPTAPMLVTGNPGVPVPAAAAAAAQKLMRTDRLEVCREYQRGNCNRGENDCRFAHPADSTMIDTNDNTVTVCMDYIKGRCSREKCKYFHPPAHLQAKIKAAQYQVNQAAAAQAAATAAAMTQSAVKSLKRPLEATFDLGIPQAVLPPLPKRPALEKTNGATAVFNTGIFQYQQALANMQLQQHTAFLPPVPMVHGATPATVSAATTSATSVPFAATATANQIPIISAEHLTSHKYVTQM
Outline: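 Compound titration spanned 92 nM–58 uM against the MBNL1-His/biotin-(CUG)12 complex. After 60 min at room temperature with 5 nM streptavidin-XL665 and 0.055 ng/ul terbium anti-His, ratiometric 665/545 nm emission (Ex 340 nm) normalized to controls.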
% is set by controls: 0 for no effect and ±100 for the full control effect; potency is the fitted concentration of half-maximal effect; tags give direction and shape of the fitted curve or compound fluorescence and quenching.

**Q.** How did the “activity change, negative = inhibition” value turn out when `O=C(Cc1ccccc1)N[C@H](c1ccccc1)P(=O)(O)CO` was run?
**A.** The value was inactive: -3.02%.

**Q.** `COc1cccc(C2CC(c3ccc(C)cc3)Nc3nc(N)nn32)c1` (stereo not given) was tested. Which Potency did it give?
**A.** Its Potency is inconclusive: 8.91 µM [quencher, side channel, single point].

**Q.** `Cc1ccc(Cn2ccc(NC(=O)c3nn(C)cc3[N+](=O)[O-])n2)cc1` was tested. Which Potency did it give?
**A.** The Potency was inconclusive: 17.8 µM [quencher, side channel, partial curve].

**Q.** Which Potency does the source give for `O=C(NCCCO)Nc1ccc2nc(-c3ccco3)c(-c3ccco3)nc2c1` here?
**A.** The Potency was inconclusive: 14.1 µM [quencher, side channel, partial curve].

**Q.** With `O=C(N/N=C/c1ccc([N+](=O)[O-])s1)c1cccc(Br)c1` as the molecule, how does the Potency read?
**A.** The Potency was inconclusive: 10 µM [quencher, side channel, partial curve].

**Q.** How did the “activity change, negative = inhibition” value turn out when `CCc1ccc(-c2cc(C)no2)cc1S(=O)(=O)N1CCN(c2ccccc2OC)CC1` was run?
**A.** The value was inactive: 3.23%.

**Q.** For `Cc1ccc(N=Nc2c(C)[nH][nH]c2=O)c(C)c1`, which Potency is on record?
**A.** The Potency was inconclusive: 14.1 µM [quencher, side channel, partial curve].

**Q.** With `Cc1ccc(F)c(NC(=O)c2c(-c3ccccc3)noc2C)c1` as the molecule, how does the “activity change, negative = inhibition” value read?
**A.** Its value is inactive: -4.78%.

**Q.** Which Potency does the source give for `CCCCNS(=O)(=O)c1ccc2nc(-c3cccnc3)cc(C(=O)NCCOC)c2c1` here?
**A.** The Potency was inconclusive: 28.2 µM [quencher, side channel, partial curve].

**Q.** `C=CCNC(=O)c1cc(Cl)ccc1[N+](=O)[O-]` was tested. Which Potency did it give?
**A.** Its Potency is inconclusive: 39.8 µM [quencher, side channel, single point].

**Q.** Which “activity change, negative = inhibition” value does the source give for `CCCn1c(C(O)c2ccc(C)cc2)nc2ccccc21` (stereo not given) here?
**A.** The value was inactive: -1.08%.

**Q.** `CCc1ccccc1Nc1ccc(C(=O)O)cc1N` was tested. Which “activity change, negative = inhibition” value did it give?
**A.** Its value is inactive: 12.2%.

**Q.** Which “activity change, negative = inhibition” value does the source give for `COC(=O)c1ccccc1NC(=O)C(CCS(C)(=O)=O)NC(C)=O` (stereo not given) here?
**A.** Its value is inactive: -6.47%.

**Q.** Which Potency does the source give for `O=C(O)c1ccc(N2C(=O)c3cccc4cccc(c34)C2=O)cc1` here?
**A.** Its Potency is inconclusive: 10 µM [quencher, side channel, partial curve].

**Q.** Which Potency does the source give for `COc1cccc(CN2CCN(Cc3cccc4c3OCO4)CC2CCO)c1` (stereo not given) here?
**A.** The Potency was inconclusive: 11.2 µM [quencher, side channel, partial curve].

**Q.** For `O=c1nc(-c2ccccc2)c2cc(SC(F)F)ccc2[nH]1`, which Potency is on record?
**A.** Its Potency is inconclusive: 39.8 µM [fluorescent, side channel, single point].

**Q.** For `CN(C(=O)COC(=O)/C=C/c1ccccc1[N+](=O)[O-])c1ccccc1`, which Potency is on record?
**A.** The Potency was inconclusive: 10 µM [quencher, partial curve].

**Q.** Which Potency does the source give for `COc1ccc(CCN2C(=O)c3[nH]nc(-c4ccccc4O)c3C2c2ccccc2)cc1OC` (stereo not given) here?
**A.** Its Potency is inconclusive: 63.1 µM [inhibitor, single point].

**Q.** How did the Potency turn out when `Cc1cc(O)c(NC(=O)c2cc([N+](=O)[O-])ccc2Cl)cc1C` was run?
**A.** Its Potency is inconclusive: 14.1 µM [quencher, side channel, partial curve].

**Q.** How did the “activity change, negative = inhibition” value turn out when `COc1cccc(CNC(=O)CCC2CCCN(C(=O)CCC(F)(F)F)C2)c1` (stereo not given) was run?
**A.** The value was inactive: -9.37%.

**Q.** With `O=[N+]([O-])c1cc(Cl)ccc1N1CCCC1` as the molecule, how does the Potency read?
**A.** Its Potency is inconclusive: 20 µM [quencher, side channel, partial curve].

**Q.** `O=C(CN1C(=O)c2cccc3cccc(c23)C1=O)N1CCOCC1` was tested. Which Potency did it give?
**A.** Its Potency is inconclusive: 12.6 µM [quencher, side channel, partial curve].

**Q.** With `O=c1/c(=C/c2ccccn2)sc2n1CN(c1ccccc1)CN=2` as the molecule, how does the Potency read?
**A.** The Potency was inconclusive: 10 µM [quencher, side channel, partial curve].

**Q.** With `O=C(CSc1ccc2c(c1)OCCO2)Nc1ccc2c(c1)OCO2` as the molecule, how does the “activity change, negative = inhibition” value read?
**A.** The value was inactive: -5.24%.

**Q.** Which Potency does the source give for `CS(=O)(=O)NCCCNc1ccc(C(F)(F)F)cc1[N+](=O)[O-]` here?
**A.** The Potency was inconclusive: 12.6 µM [quencher, side channel, partial curve].

**Q.** `O=C(O)c1cccc(-n2cccc2C=C2C(=O)c3ccccc3C2=O)c1` was tested. Which Potency did it give?
**A.** Its Potency is inconclusive: 31.6 µM [quencher, side channel, partial curve].

**Q.** With `CCC(C)c1ccc(NC(=S)Nc2ccc(OC)cc2)cc1` (stereo not given) as the molecule, how does the Potency read?
**A.** Its Potency is inconclusive: 0.316 µM [fluorescent, side channel, partial curve].

**Q.** For `CC(C)Cc1nnc(NC(=O)CCC(=O)N2CCN(c3ccc([N+](=O)[O-])cc3)CC2)s1`, which Potency is on record?
**A.** The Potency was inconclusive: 15.8 µM [quencher, side channel, partial curve].

**Q.** With `CCn1c(COc2ccc3c(c2)OCO3)nnc1SCC(=O)O` as the molecule, how does the Potency read?
**A.** The Potency was inconclusive: 79.4 µM [inhibitor, single point].

**Q.** Which Potency does the source give for `OC1(C(F)(F)F)CC(O)(C(F)(F)F)n2nc(-c3ccccc3)cc2N1` (stereo not given) here?
**A.** The Potency was inconclusive: 39.8 µM [quencher, side channel, single point].

**Q.** Which Potency does the source give for `C=CSc1sc(Cl)c(N2CCOCC2)c1[N+](=O)[O-]` here?
**A.** Its Potency is inconclusive: 14.1 µM [quencher, side channel, partial curve].

**Q.** Which “activity change, negative = inhibition” value does the source give for `Cc1ccccc1NNC(N)=S` here?
**A.** The value was inactive: 1.25%.

**Q.** With `O=C1C(=O)c2ccc(-c3ccccc3)cc2-c2ccccc21` as the molecule, how does the Potency read?
**A.** Its Potency is inconclusive: 7.94 µM [inhibitor, single point].

**Q.** `COc1ccc(C(=O)Nc2ccccc2C(=O)Nc2ccccc2C(=O)O)cc1` was tested. Which “activity change, negative = inhibition” value did it give?
**A.** Its value is inactive: -10.7%.

**Q.** `C=CC[n+]1ccc(/C=C2\C=Cc3cc(C)ccc3N2CC)c2ccccc21` was tested. Which Potency did it give?
**A.** The Potency was inconclusive: 12.6 µM [quencher, side channel, partial curve].

**Q.** How did the Potency turn out when `O=C(CNS(=O)(=O)c1cccc2nsnc12)NCc1ccc(Cl)cc1` was run?
**A.** The Potency was inconclusive: 10 µM [quencher, side channel, partial curve].

**Q.** For `C=CCSc1nnc2c(n1)OC=Nc1ccc(Br)cc1-2`, which Potency is on record?
**A.** Its Potency is inconclusive: 28.2 µM [quencher, side channel, partial curve].

**Q.** `CCOC(=O)c1cc(-c2ccncc2)nc2c1c(C)nn2-c1ccccn1` was tested. Which Potency did it give?
**A.** Its Potency is inconclusive: 14.1 µM [quencher, side channel, partial curve].

**Q.** Which Potency does the source give for `COc1cccc2cc(C(=O)NCC3CCCO3)c(=O)oc12` (stereo not given) here?
**A.** Its Potency is inconclusive: 11.2 µM [quencher, side channel, partial curve].

**Q.** `COc1ccc(CN2C(=O)c3cccnc3C2=O)cc1S(=O)(=O)N1CCOc2ccc(C)cc21` was tested. Which Potency did it give?
**A.** The Potency was inconclusive: 15.8 µM [quencher, side channel, partial curve].
